Results reported in article PMC6919601, “Identification of Plasmodium dipeptidyl aminopeptidase allosteric inhibitors by high throughput screening” (PLoS ONE, 2019).
Out of some 110,000 compounds screened, about 230 (0.21%) showed an effect of 50% or more. The list shows a part of the results.

What follows are molecules tested against DPAP1 (Plasmodium falciparum, UniProt Q8IIJ9) (assay: primary screen, percent inhibition; read by cleavage of a fluorogenic dipeptide substrate; higher = more effect of the substance).
Chain of DPAP1 (Q8IIJ9 whole entry, looked up): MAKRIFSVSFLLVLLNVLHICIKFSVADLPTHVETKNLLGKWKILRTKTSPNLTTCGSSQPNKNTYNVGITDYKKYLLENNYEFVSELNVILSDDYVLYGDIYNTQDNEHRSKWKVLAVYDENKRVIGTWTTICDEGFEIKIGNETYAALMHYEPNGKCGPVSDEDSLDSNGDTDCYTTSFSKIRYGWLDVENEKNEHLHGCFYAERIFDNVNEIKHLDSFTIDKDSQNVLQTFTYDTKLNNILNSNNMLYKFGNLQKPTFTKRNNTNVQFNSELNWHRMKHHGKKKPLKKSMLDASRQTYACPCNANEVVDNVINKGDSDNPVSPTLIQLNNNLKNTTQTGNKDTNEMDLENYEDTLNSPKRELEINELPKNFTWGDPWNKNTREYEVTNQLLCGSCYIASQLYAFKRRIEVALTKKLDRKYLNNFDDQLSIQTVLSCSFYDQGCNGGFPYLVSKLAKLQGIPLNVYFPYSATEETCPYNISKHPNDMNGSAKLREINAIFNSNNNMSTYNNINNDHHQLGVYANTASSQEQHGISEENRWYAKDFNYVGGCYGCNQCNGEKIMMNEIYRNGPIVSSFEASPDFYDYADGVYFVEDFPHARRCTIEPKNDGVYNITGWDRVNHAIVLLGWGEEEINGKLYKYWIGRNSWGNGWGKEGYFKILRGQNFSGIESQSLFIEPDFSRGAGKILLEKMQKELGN
Parameters: species or system P. falciparum D10 trophozoite lysates; single well
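Note: 30 min substrate incubation versus DMSO and 10 µM JCP410 controls.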

Compound | % Inhibition @ 10 uM [%]
N#CC1=C(N)N(c2nc[nH]n2)C2=C(C(=O)CC(c3ccccc3)C2)C1c1ccc(F)cc1 (stereo not shown) | -5.63
Cc1ccc(Cl)cc1NC(=O)CN(c1ccc(F)cc1)S(=O)(=O)c1ccc2c(c1)OCCO2 | 6.63
COCCn1c(C)cc(C(=O)C(=O)Nc2nnc(COc3ccc(C)cc3)s2)c1C | 0.655
COC(=O)c1ccc(N2C(=O)c3ccccc3C2=O)cc1O | -4.61
COc1cc(-c2cc(C(=O)O)c3cc(Br)ccc3n2)cc(OC)c1OC | 0.795
O=C(NCc1ccccc1)c1ccc(C2SCC(=O)N2Cc2ccccc2)cc1 (stereo not shown) | 1.96
Cc1cccc(-c2cc(C(=O)NCCCn3ccnc3)c3ccccc3n2)c1 | -2.83
COCCN1C(=O)/C(=C/c2cc(Br)cc(OC)c2O)S/C1=N\c1ccccc1 | -0.756
N#Cc1c(NC(=O)c2cccc(Cl)c2)sc2c1CCCC2 | -0.268
CCOC(=O)CC1(c2ccc(C)cc2)C(=O)c2ccccc2C1=O | -4.87
CCc1ccc(CNCCCSc2nnnn2C)cc1 | 0.596
Cc1cccn2c(=O)c(/C=C(\C#N)c3nc4ccccc4s3)c(Oc3ccccc3)nc12 | -5.1
CCOC(=O)c1sc(NC(=O)CSc2nnc(Cc3csc(N)n3)n2C)nc1C | 2.23
CCOc1ccc(NC(=O)c2ccccn2)cc1 | -3.43
CCn1cnc2c(cnn2-c2ccc(Cl)cc2)c1=O | -1.75
O=C(c1ccc(Cl)cc1Cl)N1CCN(c2ncccn2)CC1 | 33.3
Cc1cc(C(=O)Nc2ccc(N3CCOCC3)cc2)ccc1[N+](=O)[O-] | -2.42
COc1ccc(CN(C(C)=O)C2CC(=O)N(c3ccc(OC)cc3)C2=O)cc1 (stereo not shown) | 0.431
CCCn1c(CN(Cc2ccccc2)Cc2ccccc2)nc2c1c(=O)n(C)c(=O)n2C | -2.29
Cc1ccc2[nH]c(C)c(-c3ccccc3)c2c1 | 2.08
Cc1ccc(CCNC(=O)CN(C)S(=O)(=O)c2ccc3[nH]c4c(c3c2)CCCC4)cc1 | -2.77
Cc1ccc(N(CC(=O)N2CCN(C)CC2)S(=O)(=O)c2ccc(F)cc2)cc1 | -3.95
O=C(NC(C(=O)O)C12CC3CC(CC(C3)C1)C2)c1cc(Cl)cc(Cl)c1 (stereo not shown) | 0.634
CCC(NC(=O)Cc1ccc(OC)c(OC)c1)c1ccccc1 (stereo not shown) | -9.15
CN1c2ccccc2CC1C(C)(C)C (stereo not shown) | 3.72

Compound | % Inhibition @ 10 uM [%]
Cc1nnc(SCC(=O)NCc2ccco2)c2nn(-c3ccc(Cl)cc3)c(C)c12 | -1.23
CCC(C(=O)NCCCN1CCOCC1)n1nc(C)c2sc3ccccc3c2c1=O (stereo not shown) | -1.01
CCOC(=O)c1[nH]c(C)c(C(=O)Nc2nnc(CC)s2)c1C | 3.92
COCCCNC(=O)CNS(=O)(=O)c1c(C)cc(C)cc1C | -6.83
COc1ccc(-c2[nH]ncc2C2N=C(N)Nc3nc4ccccc4n32)cc1 (stereo not shown) | 8.96
Cc1cc(OCC(=O)Nc2sc(C)c(C)c2C(N)=O)ccc1Cl | 1.08
O=c1c(/C=N/CCc2ccccc2)c(NCCc2ccccc2)nc2ccccn12 | -3.75
CCn1c(C)cc(/C=C2\NC(=O)N(Cc3ccc(Cl)cc3Cl)C2=O)c1C | -7.31
Nc1c(C(=O)Nc2ccccc2)sc2nc(-c3ccccc3)ccc12 | -6.82
O=C(O)CCCC(=O)N1N=C(c2ccccc2)CC1c1ccc2c(c1)OCO2 (stereo not shown) | -5.96
COc1ccc(NC(=O)CCC2CCCCC2)c(OC)c1 | 2.06
CS(=O)(=O)N(CC(=O)NC1CC2CCC1C2)c1ccccc1F (stereo not shown) | -17.9
O=C(c1ccc2c(c1)ncn2C1CCCCC1)n1ccnc1 | -0.0542
CSC(C)CC(C#N)NC(=O)[C@H](CC(C)C)NC(=O)OCc1ccccc1 (stereo partly shown) | 1.71
CCOC(=O)CC(=O)c1sc2nccc(N(C)C)c2c1N | -4.21
CN1C(=O)C(=CNc2ccc3c(c2)CCC3)C(=O)N(C)C1=O | 4.32
Nc1c2c(=O)[nH]c(=O)c2c(N)c2c(=O)c3ccccc3c(=O)c12 | 5.77
O=C1C=Cc2cc(Br)ccc2C1=O | 33.3
N#CCNC(=O)[C@H](CSCc1ccccc1)NC(=O)c1ccsc1 | 4.54
CCN1C/C(=C/c2ccc(F)cc2)C(=O)/C(=C/c2ccc(F)cc2)C1 | -3.79
Cc1ccc2[nH]cc(CCN)c2c1 | -3.58
C=CCOc1ccc(/C=c2\sc3nc(-c4ccccc4C)nn3c2=O)cc1 | 0.561
Cc1nc([N+](=O)[O-])c(N2CCN(C)CC2)n1Cc1ccccc1 | -0.239
O=C(CN1N=C(c2ccc(Cl)cc2)CCC1=O)NCc1ccc2c(c1)OCO2 | -1.21
Cc1ccccc1CNCc1c(C(=O)O)n(Cc2ccc(F)cc2Cl)c2ccccc12 | 1.25

Compound | % Inhibition @ 10 uM [%]
Cc1cccnc1NS(=O)(=O)c1ccc2[nH]c3c(c2c1)CCCC3 | -3.88
CCOCCCNC(=O)C1CCCN(S(=O)(=O)c2cccc3nsnc23)C1 (stereo not shown) | -2.29
CCc1nc2nc(C)cc(NCc3ccccc3OC)n2n1 | 3.5
CCCCC(=O)Nc1ccc(S(=O)(=O)NC(=O)CC)cc1 | 4.65
CCN1CCCC1CNC(=O)CSCc1cnn(-c2ccccc2)c1-n1cccc1 (stereo not shown) | 0.413
Cc1ccc(C2=N/C(=C/C=C/c3ccccc3)C(=O)O2)cc1C | 0.997
O=C(c1ccc(CS(=O)c2ccc(Cl)cc2)o1)N1CCC2(CC1)OCCO2 (stereo not shown) | -4.96
CCN(CC)C(C)C(=O)c1ccc2ccccc2c1 (stereo not shown) | -0.0494
CNS(=O)(=O)c1cccnc1N1CCN(C(C)C)CC1 | -1.59
CCOc1ccc(-c2nnc(SCC(=O)N3CC(C)CC(C)C3)o2)cc1 (stereo not shown) | 3.51
COC(=O)c1nc2n(n1)C(c1ccc(Cl)cc1Cl)C=C(c1ccc(OC)cc1)N2 (stereo not shown) | -5.19
O=c1[nH]c(=O)n(Cc2ccccc2)c2c1C(C(F)(F)F)(C(F)(F)F)NC(CCc1ccccc1)=N2 | 5.44
CN(C)c1ccc(/C=C/C(=O)/C=C/c2ccco2)cc1 | 2.62
CC1CCN(c2nc3c(=O)n(C)c(=O)n(C)c3[nH]2)CC1 | 1.97
CN(CCc1ccccn1)Cc1ccccc1C(F)(F)F | -6.35
COc1ccc(NC(=O)Cc2ccc(Br)cc2)cc1 | 6.07
CC1CCN(C(=O)c2ccc(N(C)S(C)(=O)=O)cc2)CC1 | -5.14
CC(=O)c1sc(N2C(=O)c3oc4ccccc4c(=O)c3C2c2ccc(C)o2)nc1C (stereo not shown) | 2.16
Cc1ccc(-c2csc(/C(C#N)=C/c3ccc(Cl)cc3)n2)cc1 | -4.31
NS(=O)(=O)c1cccc(NC(=O)c2cc3ccccc3o2)c1 | -2.37
Cc1cc(C(=O)NC(C)c2ccc3c(c2)OCCO3)c2c(C)nn(-c3ccccc3)c2n1 (stereo not shown) | 3.75
Cc1ccc(-c2ccc(/C=C3/SC(N4CCOCC4)=NC3=O)o2)cc1 | 7.5
CN(CCNC(=O)c1csc2c1CCCC2)C1CCCCC1 | -3.21
C=CCc1c(C)nc(-c2ccccc2)nc1O | -0.725
Cc1ccc(Nc2nc(-c3ccc(Cl)c(Cl)c3)cs2)cc1C | 0.986

Compound | % Inhibition @ 10 uM [%]
Oc1nnc(Sc2ncnc3[nH]cnc23)c(O)n1 | -0.0267
O=C(COc1ccccc1)Nc1ccc(C(=O)c2ccccc2)cc1 | -3.09
CCOC(=O)c1ccc(NC(=O)c2cccc(C)c2)cc1 | 0.317
CC(NC(=S)NCCc1ccc(S(N)(=O)=O)cc1)C12CC3CC(CC(C3)C1)C2 (stereo not shown) | 23.1
COc1ccc(C(=O)NCCCc2ccccc2)cc1 | 2.76
COc1ccc2sc(N(CCN(C)C)C(=O)c3cccc(C(F)(F)F)c3)nc2c1 | 0.918
CCOc1ccc(C(=O)n2nc(N)c3cc4cc(OC)ccc4nc32)cc1 | 3.01
CC1=CC2=NC(=O)/C(=C\c3ccc(-c4ccc(F)cc4)o3)C(=N)N2O1 | -1.43
Cc1ccc(N2C(N)=C(C#N)C3(C(=O)N(C)c4ccccc43)C3=C2CC(C)(C)CC3=O)cc1Cl (stereo not shown) | 4.01
CC1CC(C)CN(CCCNC(=O)c2cc3cc4ccc(Cl)cc4nc3o2)C1 (stereo not shown) | 3.53
O=C(Nc1ccccc1C(=O)N1CCCCCC1)c1ccco1 | -11.9
O=C(CCCN1C(=O)CSc2ncccc21)NCCc1ccc(Cl)cc1 | -0.637
COc1ccc(-c2csc3ncn(Cc4ccccc4F)c(=O)c23)cc1OC | 2.56
Cc1nc2nc(N)nn2c(O)c1Cl | -3.64
CC(CNS(=O)(=O)c1ccc(-c2ccc(O)nn2)o1)c1ccccc1 (stereo not shown) | -1.98
O=C(CCNS(=O)(=O)c1cccs1)NCc1ccccc1Cl | -3.79
COc1ccc(CN2CCN(Cc3cccc(OC)c3OC)CC2)c(OC)c1 | -2.99
Cn1c(CN2CCOCC2)nc(=O)c2ccccc21 | -0.999
FC(F)(F)c1cccc(N2CCN(Cc3cccc(Br)c3)CC2)c1 | -7.33
O=C(Cn1c2ccccc2c2cnnc(O)c21)NCCCN1CCCC1=O | -2
COc1ccccc1-n1nnc(-c2nc(-c3ccccc3C)no2)c1N | 2.19
Cc1oc2c(C)c3oc(=O)c(CC(=O)O)c(C)c3cc2c1C | 0.558
COc1cc2nc(NCC3CCCO3)n3nc(-c4ccccc4)nc3c2cc1OC (stereo not shown) | 2.6
COc1cc(-c2noc(CCC(=O)NC(C)C)n2)cc(OC)c1OC | 2.02
CCc1nc2ccc(C(=O)NCCN3CCN(C)CC3)cc2nc1CC | 4.85
